Results published in the supplement of paper PMC8728848.
The list shows a part of the results.

How the values were obtained:
Assay in all cases: glycan array binding signal (z-score within array); higher = stronger binding
Conditions in all cases: glycan notation: IUPAC condensed, linker removed
[1] = molecular target: Gal(b1-4)GlcNAc(b1-2)Man(a1-6)[Man(a1-3)]Man(b1-4)GlcNAc(b1-4)GlcNAc
In short: (§1)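 The binding signal is a Z-score computed within each array and averaged over linkers. Arrays of the same protein sequence at different concentrations or buffers were also averaged together. Data originate from 3228 arrays in the Consortium for Functional Glycomics database, kept only where the protein sequence was available.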

[2] = molecular target: Gal(b1-4)GlcNAc(b1-2)[Gal(b1-4)GlcNAc(b1-4)]Man(a1-3)[Gal(b1-4)GlcNAc(b1-2)Man(a1-6)]Man(b1-4)GlcNAc(b1-4)GlcNAc
In short: as §1

[3] = molecular target: Gal(b1-4)GlcNAc(b1-3)Gal(b1-3)GlcNAc
In short: as §1

[4] = molecular target: Gal(b1-4)GlcNAc(b1-3)Gal(b1-4)Glc
In short: as §1

[5] = molecular target: Gal(b1-4)GlcNAc(b1-3)Gal(b1-4)GlcNAc
In short: as §1

[6] = molecular target: Gal(b1-4)GlcNAc(b1-3)Gal(b1-4)GlcNAc(b1-3)Gal(b1-4)GlcNAc
In short: as §1

[7] = molecular target: Gal(b1-4)GlcNAc(b1-3)Gal(b1-4)[Fuc(a1-3)]GlcNAc(b1-3)Gal(b1-4)[Fuc(a1-3)]GlcNAc
In short: as §1

[8] = molecular target: Gal(b1-4)GlcNAc(b1-3)GalNAc
In short: as §1

[9] = molecular target: Gal(b1-4)GlcNAc(b1-3)[Gal(b1-4)GlcNAc(b1-6)]Gal(b1-4)GlcNAc
In short: as §1

[10] = molecular target: Gal(b1-4)GlcNAc(b1-3)[Gal(b1-4)GlcNAc(b1-6)]GalNAc
In short: as §1

[11] = molecular target: Gal(b1-4)GlcNAc(b1-3)[GlcNAc(b1-6)]Gal(b1-4)GlcNAc
In short: as §1

[12] = molecular target: Gal(b1-4)GlcNAc(b1-6)Gal(b1-4)GlcNAc
In short: as §1

[13] = molecular target: Gal(b1-4)GlcNAc(b1-6)Gal(b1-4)GlcNAc(b1-6)GalNAc
In short: as §1

[14] = molecular target: Gal(b1-4)GlcNAc(b1-6)GalNAc
In short: as §1

[15] = molecular target: Gal(b1-4)GlcNAc(b1-6)[Gal(b1-3)]GalNAc
In short: as §1

Gal3S(b1-3)GalNAc = molecular target: Gal3S(b1-3)GalNAc
In short: as §1

Gal3S(b1-3)GlcNAc = molecular target: Gal3S(b1-3)GlcNAc
In short: as §1

[16] = molecular target: Gal3S(b1-3)[Fuc(a1-4)]GlcNAc
In short: as §1

Gal3S(b1-4)Glc = molecular target: Gal3S(b1-4)Glc
In short: as §1

Gal3S(b1-4)Glc6S = molecular target: Gal3S(b1-4)Glc6S
In short: as §1

Gal3S(b1-4)GlcNAc = molecular target: Gal3S(b1-4)GlcNAc
In short: as §1

Gal3S(b1-4)GlcNAc6S = molecular target: Gal3S(b1-4)GlcNAc6S
In short: as §1

[17] = molecular target: Gal3S(b1-4)[Fuc(a1-3)]Glc
In short: as §1

Gal3S4S(b1-4)GlcNAc = molecular target: Gal3S4S(b1-4)GlcNAc
In short: as §1

Gal3S6S(b1-4)GlcNAc = molecular target: Gal3S6S(b1-4)GlcNAc
In short: as §1

Gal3S6S(b1-4)GlcNAc6S = molecular target: Gal3S6S(b1-4)GlcNAc6S
In short: as §1

Gal4S(b1-4)GlcNAc = molecular target: Gal4S(b1-4)GlcNAc
In short: as §1

Gal4S6S(b1-4)GlcNAc = molecular target: Gal4S6S(b1-4)GlcNAc
In short: as §1

Gal6S(b1-4)Glc = molecular target: Gal6S(b1-4)Glc
In short: as §1

Gal6S(b1-4)Glc6S = molecular target: Gal6S(b1-4)Glc6S
In short: as §1

Gal6S(b1-4)GlcNAc = molecular target: Gal6S(b1-4)GlcNAc
In short: as §1

Gal6S(b1-4)GlcNAc6S = molecular target: Gal6S(b1-4)GlcNAc6S
In short: as §1

GalNAc(a1-3)Gal = molecular target: GalNAc(a1-3)Gal
In short: as §1

GalNAc(a1-3)GalNAc = molecular target: GalNAc(a1-3)GalNAc
In short: as §1

GalNAc(b1-3)Gal = molecular target: GalNAc(b1-3)Gal
In short: as §1

[18] = molecular target: GalNAc(b1-3)Gal(a1-4)Gal(b1-4)GlcNAc
In short: as §1

[19] = molecular target: GalNAc(b1-3)Gal(a1-4)Gal(b1-4)GlcNAc(b1-3)Gal(b1-4)Glc
In short: as §1

GalNAc(b1-3)GalNAc = molecular target: GalNAc(b1-3)GalNAc
In short: as §1

B1: SSA (Sclerotinia sclerotiorum), A7XUK7 (protein)
chain: MGFKGVGTYEIVPYQAPSLNLNAWEGKLEPGAVVRTYTRGDKPSDNAKWQVALVAGSGDSAEYLIINVHSGYFLTATKENHIVSTPQISPTDPSARWTIKPATTHQYEVFTINNKVSELGQLTVKDYSTHSGADVLSASAKTADNQKWYFDAK
- glycan array binding signal (z-score) [1]: -0.176
- glycan array binding signal (z-score) [2]: -0.065
- glycan array binding signal (z-score) [3]: -0.189
- glycan array binding signal (z-score) [4]: -0.046
- glycan array binding signal (z-score) [5]: -0.038
- glycan array binding signal (z-score) [6]: -0.142
- glycan array binding signal (z-score) [7]: -0.107
- glycan array binding signal (z-score) [8]: -0.315
- glycan array binding signal (z-score) [9]: 0.146
- glycan array binding signal (z-score) [10]: 0.463
- glycan array binding signal (z-score) [11]: -0.257
- glycan array binding signal (z-score) [12]: -0.37
- glycan array binding signal (z-score) [13]: 0.004
- glycan array binding signal (z-score) [14]: 2.43
- glycan array binding signal (z-score) [15]: 0.195
- glycan array binding signal (z-score) (Gal3S(b1-3)GalNAc): -0.332
- glycan array binding signal (z-score) (Gal3S(b1-3)GlcNAc): -0.164
- glycan array binding signal (z-score) [16]: -0.255
- glycan array binding signal (z-score) (Gal3S(b1-4)Glc): -0.202
- glycan array binding signal (z-score) (Gal3S(b1-4)Glc6S): -0.062
- glycan array binding signal (z-score) (Gal3S(b1-4)GlcNAc): -0.136
- glycan array binding signal (z-score) (Gal3S(b1-4)GlcNAc6S): -0.019
- glycan array binding signal (z-score) [17]: -0.12
- glycan array binding signal (z-score) (Gal3S4S(b1-4)GlcNAc): 0.008
- glycan array binding signal (z-score) (Gal3S6S(b1-4)GlcNAc): -0.098
- glycan array binding signal (z-score) (Gal3S6S(b1-4)GlcNAc6S): 0.018
- glycan array binding signal (z-score) (Gal4S(b1-4)GlcNAc): -0.275
- glycan array binding signal (z-score) (Gal4S6S(b1-4)GlcNAc): 0.069
- glycan array binding signal (z-score) (Gal6S(b1-4)Glc): -0.267
- glycan array binding signal (z-score) (Gal6S(b1-4)Glc6S): 0.078
- glycan array binding signal (z-score) (Gal6S(b1-4)GlcNAc): -0.222
- glycan array binding signal (z-score) (Gal6S(b1-4)GlcNAc6S): 0.403
- glycan array binding signal (z-score) (GalNAc(a1-3)Gal): 6.1
- glycan array binding signal (z-score) (GalNAc(a1-3)GalNAc): 2.95
- glycan array binding signal (z-score) (GalNAc(b1-3)Gal): 3
- glycan array binding signal (z-score) [18]: 4.61
- glycan array binding signal (z-score) [19]: 6.97
- glycan array binding signal (z-score) (GalNAc(b1-3)GalNAc): -0.399
